± gives the standard deviation of the averaged measurements. Over roughly 4,100 sequences, “relative kcat/Km (krel) vs genomic leader AAAGAU” has its median near 1.7; the highest 2% begin near 6.5. Only a part is listed here, and it is no random draw.
Biological target: T1, E. coli RNase P holoenzyme (M1 P RNA + rnpA protein) (UniProt P0A7Y8)
T1 sequence: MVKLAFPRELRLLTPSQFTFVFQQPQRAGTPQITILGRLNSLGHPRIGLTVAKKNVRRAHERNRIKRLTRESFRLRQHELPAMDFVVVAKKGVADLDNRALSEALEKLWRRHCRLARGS
Experiment: relative kcat/Km (krel) vs genomic leader AAAGAU (relative (reference leader = 1)); higher = faster RNase P cleavage
Method: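 HTS-Kin: a pool of ptRNA-Met (21C construct) with all 4096 combinations of 5' leader nucleotides N(-6) to N(-1) was processed in vitro by E. coli RNase P (P RNA + rnpA/C5 protein) under multiple-turnover conditions at 37 C, pH 8, 17.5 mM MgCl2. Residual substrate was Illumina-sequenced at several fractions reacted, and relative kcat/Km (krel) was computed by internal competition kinetics, calibrated to the genomic leader (AAAGAU = 1). The listed hexamer is the varied N(-6)..N(-1) leader (DNA letters), and it sits between a fixed 5' stem-loop flank (GCAUGCACGAAAGUGCGUGCUAUGAA) and the mature tRNA-Met starting GGCUACGUAGCUCAGUUGG. Two technical replicates are averaged.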

[1] = fraction of substrate reacted: ~26-29% (28.66% repeat 1, 26.4% repeat 2)
[2] = fraction of substrate reacted: ~9-10% (9.79% repeat 1, 9.1% repeat 2)
[3] = fraction of substrate reacted: ~13-16% (15.68% repeat 1, 13.17% repeat 2)

Row | Sequence | relative kcat/Km [1] | relative kcat/Km [2] | relative kcat/Km [3]
1 | CTGGTA | 0.466 ± 0.074 |  | 
2 | TGCATA | 2.13 ± 0.83 | 0.947 ± 0.33 | 1.23 ± 0.12
3 | TGGAGC |  |  | 0.914 ± 0.2
4 | CTAGTT | 1.24 ± 0.32 | 1.78 ± 0.42 | 1.05 ± 0.21
5 | CAAAAT | 2.84 ± 0.88 | 2.15 ± 1 | 2.38 ± 0.084
6 | GAGCAC | 3.84 ± 1.8 | 2.38 ± 0.81 | 2.19 ± 1.3
7 | GGTATC | 1.77 ± 0.96 | 1.52 ± 0.37 | 1.35 ± 0.36
8 | GCTTCC | 2.18 ± 0.12 | 1.24 ± 0.43 | 1.32 ± 0.13
9 | AGTGTA | 1.63 ± 0.6 | 2.32 ± 1.4 | 1.27 ± 0.85
10 | CGAACC | 1.48 ± 0.11 | 2.51 ± 1.6 | 1.18 ± 0.14
11 | GTCCGC |  | 3.94 ± 0.68 | 5.24 ± 1.4
12 | TTCCGG | 1.68 ± 0.19 | 1.74 ± 1.5 | 0.738 ± 0.38
13 | GCCACT | 2.54 ± 0.06 |  | 1.51 ± 0.53
14 | TGCTGT | 1.11 ± 1.1 |  | 0.877 ± 0.71
15 | CGTGTC | 1.24 ± 0.42 | 0.995 ± 0.46 | 1.16 ± 0.23
16 | GGTGAG | 0.87 ± 0.39 |  | 
17 | TACCGG | 1.29 ± 0.22 |  | 
18 | GGATTC | 1.37 ± 0.96 | 1.29 ± 0.44 | 1.08 ± 0.39
19 | CTCCTC | 4.95 ± 1.7 | 3 ± 1.3 | 3.49 ± 0.19
20 | TTGTGC | 1.47 ± 0.29 | 1.41 ± 0.67 | 1.16 ± 1
21 | ACCTGA | 5.46 ± 3.1 | 2.56 ± 0.24 | 4.16 ± 0.26
22 | CTAATT | 2.36 ± 0.52 | 2.55 ± 1 | 1.92 ± 0.32
23 | TTCCTA | 5.89 ± 2.4 | 3.35 ± 1.2 | 4.53 ± 0.46
24 | GTGAAT | 2.52 ± 0.91 | 1.67 ± 0.3 | 2.31 ± 0.99
25 | TTGGCA | 1.36 ± 0.94 | 0.832 ± 0.33 | 1.2 ± 0.47

Row | Sequence | relative kcat/Km [1] | relative kcat/Km [2] | relative kcat/Km [3]
26 | CTACCA | 1.29 ± 0.13 | 1.97 ± 1.1 | 1.07 ± 0.98
27 | AACGTG | 0.741 ± 0.57 |  | 
28 | ACTTAG | 2.85 ± 0.73 | 2.33 ± 2.2 | 1.65 ± 0.094
29 | TAGTAT | 6.5 ± 3.2 | 3.26 ± 0.97 | 4.14 ± 0.84
30 | GGCCTA | 1.67 ± 0.45 | 1.06 ± 0.031 | 1.41 ± 0.32
31 | TCCAGC | 6.09 ± 2 | 4.58 ± 2.5 | 4.83 ± 0.15
32 | TTAGCC | 2.69 ± 1.3 | 2.49 ± 0.59 | 2.25 ± 0.4
33 | TAGAAC | 5.64 ± 2.3 | 3.23 ± 1.4 | 4.09 ± 0.35
34 | CTAAAA | 2.89 ± 0.88 | 2.15 ± 0.51 | 2.43 ± 0.18
35 | AACCCG | 0.785 ± 0.38 |  | 
36 | GTCTTT | 8.44 ± 3.8 | 4.65 ± 1.2 | 5.87 ± 1.4
37 | TTGGAA | 1.15 ± 0.49 |  | 1.33 ± 0.71
38 | CACTCG | 2.49 ± 0.23 | 0.987 ± 0.92 | 1.52 ± 0.017
39 | TTTGCT | 0.983 ± 0.097 | 0.76 ± 0.28 | 0.721 ± 0.56
40 | GGCATG | 1.488 ± 0.0024 |  | 0.182 ± 0.053
41 | AACATA | 3.86 ± 1.5 | 1.77 ± 0.44 | 2.46 ± 0.31
42 | ATTATG | 1.83 ± 0.24 |  | 0.849 ± 0.7
43 | TCCCAA | 6.94 ± 2.3 | 4.73 ± 3.1 | 4.63 ± 0.2
44 | AAGTCA | 2.02 ± 0.054 |  | 1.4 ± 1
45 | ACTTCC | 2.86 ± 0.76 | 2.52 ± 0.38 | 2.75 ± 0.79
46 | GCCCAA | 5.72 ± 2.9 | 2.42 ± 0.45 | 3.75 ± 1.7
47 | TCATCG | 1.96 ± 0.15 | 1.66 ± 1.1 | 0.943 ± 0.074
48 | GTCGCG | 3.47 ± 0.87 | 2.3 ± 2.2 | 1.77 ± 0.36
49 | TTAGAA | 3.57 ± 1.4 | 2.72 ± 1.5 | 2.61 ± 0.03
50 | ATCTTC | 6.11 ± 2.2 | 3.23 ± 1.1 | 4.36 ± 0.71

Source: the supplement of paper PMC9433436
